Data: US20260217826A1 (YALE UNIVERSITY, published 2026)

Experiments:
TCR Vβ1 = assay: cell-based or functional assay
TCR Vβ13.6 = assay: cell-based or functional assay

% area under "CD69 activation" (CD69 on CAR Jurkat effector cells after overnight co-culture with Jurkat target cells, flow cytometry) (TCR Vβ1): 24.7%
B1: mouse anti-Vβ1 CAR (other)
chain: QLQLVQSGPELREPGESVKISCKASGYTFTDYIVHWVKQAPGKCLKWMGWINTYTGTPTYADDFEGRFVFSLEASASTANLQISNLKNEDTATYFCARSWRRGIRGIGFDWGQGVMVTVSSGSTSGSGKPGSGEGSTKGDVQMTQSPYNLAASPGESVSINCKASKSINKYLAWYQQKPGKPNKLLIYDGSTLQSGIPSRFSGSGSGTDFTLTIRGLEPEDFGLYYCQQHNEYPPTFGCGTKLELKGTTTTPAPRPPTPAPTIASQPLSLRPEACRPAAGGAVHTRGLDFACDRRPPSKPFWVLVVVGGVLACYSLLVTVAFIIFWVRKRGRKKLLYIFKQPFMRPVQTTQEEDGCSCRFPEEEEGGCELASL[letters of about 120 residues not shown]

% area under "CD69 activation" (CD69 on CAR Jurkat effector cells after overnight co-culture with Jurkat target cells, flow cytometry) (TCR Vβ13.6): 48.2%
B2: mouse anti-Vβ13.6 CAR (other)
chain: EVQLQQSGPELVKPGASVKISCKASGYSFTGNYMNWVKQSPEKCLEWIGEINPNTGGTTYNQKLKAKATLTVDKSSSTAYMQLKSLTSEDSAVYYCARSEYYGIYYYAMDYWGQGTSVTVSSGSTSGSGKPGSGEGSTKGDIQMTQSPASLSASVGETVTMTCRTSENIYSNLVWYQQKQGKSPQFLVYAATNLAEGVPSRFSGSGSGTQFSLKINSLQPEDFGSYYCQHFYGTPRTFGCGTKLEIKGTTTTPAPRPPTPAPTIASQPLSLRPEACRPAAGGAVHTRGLDFACDRRPPSKPFWVLVVVGGVLACYSLLVTVAFIIFWVRKRGRKKLLYIFKQPFMRPVQTTQEEDGCSCRFPEEEEGGCELASL[letters of about 120 residues not shown]

One block for each binder: values may come before it.
